# Measured values: publication PMC5836133
# The other results are listed elsewhere or left out. At the low end of the ranking, values are background and their order means little.
# System: T1, GST-NbGlk1(82-244)
# T1 sequence: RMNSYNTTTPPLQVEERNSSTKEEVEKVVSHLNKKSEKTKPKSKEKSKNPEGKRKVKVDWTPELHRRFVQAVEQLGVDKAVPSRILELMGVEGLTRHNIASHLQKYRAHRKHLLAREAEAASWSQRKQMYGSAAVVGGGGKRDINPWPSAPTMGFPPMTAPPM
# Experiment: protein-binding microarray;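 note: rank-based score ranging −0.5 to +0.5 with E above 0.45 taken as significant binding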
# Conditions: NbGlk1 is a Golden2-like transcription factor of Nicotiana benthamiana; high values mean tight binding; most listed sequences are background and not binding sites; double strand, one strand shown
row,Sequence,binding signal [E-score]
1,ACTGGTCA,-0.194
2,ATGCCAAC,-0.0573
3,CACGCTCC,-0.134
4,AGCACGAT,0.124
5,AGGAAATC,0.489
6,AAGGGTGT,-0.244
7,AGTAAGTG,-0.00531
8,AGTCGCAG,-0.129
9,AGACCCAT,-0.229
10,AGTATTAC,0.0576
11,AGTTCAGG,-0.161
12,ACACTCGC,-0.0974
13,ACCCCACG,-0.172
14,AGGTCCGC,-0.237
15,ATAATTGG,0.128
16,AGCCATAT,0.13
17,ACTCGTCC,-0.115
18,AAACTCCC,-0.219
19,CACCTCGA,-0.105
20,ACAGTCCA,-0.131
21,ATTGTCGG,0.0652
22,AAAAGATA,0.19
23,ATACAACC,-0.0811
24,AGAAGGCG,-0.21
25,AAAAATTC,0.151

row,Sequence,binding signal [E-score]
1,ATGGCAAT,0.237
2,AACTAACA,0.0231
3,AGCTCAGA,-0.084
4,AGCAACTG,-0.175
5,AACTAAGC,-0.0405
6,ATGTCATA,0.0662
7,ACTCCGCA,-0.0594
8,ACGCGCCA,-0.114
9,AGCCTTCC,-0.377
10,CACGAACG,-0.185
11,ACTGGTTC,-0.192
12,ATAGGGCG,-0.0412
13,CACGCACA,-0.182
14,ATGTATCC,0.125
15,AGCCCATC,-0.181
16,ATCGTCAG,0.16
17,ACGACCAG,-0.177
18,CAGACCGA,-0.082
19,AACAGCGG,-0.0877
20,AAGCTTTG,-0.0684
21,ATTCACGC,0.0641
22,AGATGGTA,0.0169
23,AACTTTGG,0.0457
24,ACTAGTCC,-0.196
25,AATAGTCA,-0.0577

row,Sequence,binding signal [E-score]
1,AAGGCACT,-0.304
2,ACAGTGCG,0.0789
3,ATGCCCAG,-0.204
4,AGAGAGCG,-0.117
5,ATACCTAG,0.057
6,AGCGTGCA,-0.157
7,AAGTGGTA,0.0203
8,CACGGATG,-0.0843
9,CACATTCA,0.169
10,ATTCGCGG,0.239
11,ACGTTTCG,0.00777
12,AGGAATAT,0.357
13,CAGCACCA,-0.226
14,AAACATAG,0.00303
15,AGGAACAG,-0.162
16,AACGGTCC,-0.145
17,AAGGTTAT,-0.0865
18,ATCAGGAT,0.344
19,ATGAACTC,-0.198
20,ATGCCACA,0.000913
21,AGTCCGTC,-0.313
22,ATAAACGA,0.059
23,ACTAGGGA,-0.177
24,AACCGGCC,-0.153
25,ACGTTTAG,-0.132

row,Sequence,binding signal [E-score]
1,AAACCCCT,-0.27
2,ATGAACGA,0.02
3,AAATTGGC,-0.00458
4,AAGCAAAA,-0.0474
5,CACATGAG,-0.00253
6,CACCTACG,-0.123
7,ACCGCGTA,-0.00453
8,CAAACTAG,-0.0102
9,AGTACTTA,0.0793
10,AGCGAACA,0.0202
11,AGCCTCCG,-0.249
12,CACCGCTA,-0.0751
13,AATCTCTA,0.377
14,AAGGATAT,0.387
15,ACTTTGCC,-0.0593
16,ACGCTATA,0.0332
17,ATTCGTGC,0.0416
18,ATATCGCA,0.355
19,AACCTGCA,-0.0844
20,ACATAAGC,-0.0941
21,AGTCACAC,-0.13
22,AGATGTGC,-0.0484
23,ATTCCTCG,0.233
24,ACAAAAGT,-0.114
25,ATTGAAGA,0.112

row,Sequence,binding signal [E-score]
1,AAATGAAC,-0.074
2,AAGTGTCA,-0.166
3,ATTCAATA,0.031
4,ATGGACAT,-0.0143
5,AGAGACCC,-0.33
6,CACGCAAC,0.0233
7,AAACAAGC,-0.0387
8,ATTTCCTG,0.362
9,ACAGTAGT,-0.0744
10,CACCAGTA,-0.00762
11,AAGGTAGT,-0.0011
12,ACCAGTTA,-0.0697
13,ATGCAAAG,0.0229
14,AACAGGAG,-0.136
15,AGCCCAAT,-0.211
16,ATAAGACC,-0.269
17,CAGAAGCA,-0.185
18,ACGCTCGG,-0.151
19,CACTTCGG,-0.0724
20,AGCCCTGC,-0.264
21,ACGCAGGG,-0.222
22,ATCGGATA,0.33
23,AAGTCCGC,-0.0805
24,AATCCACT,0.364
25,AGTACTGA,0.0794

row,Sequence,binding signal [E-score]
1,AGTGTCAA,-0.0188
2,ATCCGCTG,0.261
3,AGTCCTAG,-0.151
4,AAGTATCG,0.185
5,ATTATCAA,0.147
6,CAAGCAAA,0.0803
7,AATACGCT,0.105
8,AGCGCGTA,-0.0394
9,ACGCGGTA,-0.169
10,ACTAATCG,-0.0313
11,AGGGAGGC,-0.36
12,AATCCAAG,0.394
13,AATGGCAC,-0.0958
14,ACAAGGTA,-0.073
15,ATCAGCTG,0.0711
16,AACAGTGA,-0.164
17,CACAGGTA,-0.0211
18,ACCTAGCT,-0.174
19,ACAATCAG,0.237
20,ACGGAATA,0.264
21,AACTGCTC,-0.0983
22,ACTCCTAC,-0.185
23,AATCGCCG,0.301
24,ACACGCTG,-0.141
25,ATTATATA,0.215

row,Sequence,binding signal [E-score]
1,ACGCAACG,0.0162
2,ACTCCACA,-0.0399
3,ATCTAGTA,0.316
4,AAGGATAA,0.13
5,AATAGTTA,0.148
6,AAAACAAC,0.0975
7,AATATGGA,0.156
8,ATGTTCAG,-0.0573
9,AACGCTGA,0.0211
10,ACCGTAAC,0.0528
11,ACGGATGA,-0.152
12,AGATCCTC,0.387
13,AACTCGCC,-0.159
14,ATCTACGA,0.334
15,ACCTTCCG,-0.0959
16,ATCAAGTC,0.0474
17,AGCCGCTC,-0.221
18,AACTACCC,-0.0879
19,AGAGTTTA,0.0323
20,AAGCACCC,-0.259
21,AACGGCAC,-0.0234
22,AGATCATC,0.147
